In the supplement of paper PMC9446081:
Among all 39,000 compounds or so, about 220 (0.56%) showed activity. Some of the results follow.

These compounds were tested on Escherichia coli K-12 BW25113 (assay: relative growth (OD600 normalised to plate interquartile mean) (fraction); higher = less growth inhibition, active = 0.2 or less). Details: 50 µM; LB; incubation time: overnight (16-24 h).
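Also: static incubation at 37 °C against the wild-type strain, values averaged over two biological replicates.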

Structure (SMILES) | relative growth
C[C@@H]1CN([C@H](C)CO)C(=O)c2cc(NC(=O)C3CCCCC3)ccc2O[C@@H]1CN(C)Cc1ccc(Cl)c(Cl)c1 | inactive: 0.987
Cc1ccc(S(=O)(=O)N[C@@H]2CC[C@@H](CC(=O)NCc3ccc(Cl)c(Cl)c3)O[C@@H]2CO)cc1 | inactive: 1
COCC#Cc1ccc2c(c1)O[C@H](CN(C)S(C)(=O)=O)[C@H](C)CN([C@@H](C)CO)S2(=O)=O | inactive: 0.986
C[C@H]1CN([C@@H](C)CO)C(=O)c2cccc(NC(=O)C3CCCCC3)c2O[C@H]1CN(C)Cc1ccc(C(=O)Nc2ccccc2N)cc1 | inactive: 1.01
CC[C@H](C)C[C@H](C)CCCCCCCCC(=O)N[C@H]1C[C@@H](O)[C@@H](NCCN)NC(=O)[C@@H]2[C@@H](O)CCN2C(=O)[C@H]([C@H](O)CCN)NC(=O)[C@H]([C@H](O)[C@@H](O)c2ccc(O)cc2)NC(=O)[C@@H]2C[C@@H](O)CN2C(=O)[C@H]([C@@H](C)O)NC1=O | active: 0.173
COc1ccc2c3c(n(c2c1)C)[C@H](CO)N(C[C@]13CCN(CC1)C(=O)Nc1cccc(c1)F)C(=O)CN1CCOCC1 | inactive: 1.04
Cc1nn(C)cc1NC(=O)C[C@H]1CC[C@@H]2[C@@H](COc3ccc(NC(=O)C4CCOCC4)cc3C(=O)N2C)O1 | inactive: 1
CN1C(=O)c2cc(NS(=O)(=O)c3cccc(F)c3)ccc2OC[C@@H]2O[C@@H](CC(=O)NCCN3CCCCC3)CC[C@H]21 | inactive: 1.05
C[C@@H]1CN([C@H](C)CO)C(=O)c2cc(NC(=O)Cc3ccccc3)ccc2O[C@@H](C)CCCCO[C@H]1CN(C)Cc1ccc(C(F)(F)F)cc1 | inactive: 0.906
C[C@@H]1CN([C@@H](C)CO)C(=O)c2cc(NC(=O)Nc3ccc4c(c3)OCO4)ccc2O[C@@H](C)CCCCO[C@@H]1CN(C)C(=O)Nc1ccccc1 | inactive: 1.04
CCSc1nc(-c2ccc(C)cc2)cc(C(F)(F)F)c1C#N | inactive: 1
C[C@@H]1CN([C@H](C)CO)S(=O)(=O)c2ccc(C#Cc3cccnc3)cc2O[C@H]1CN(C)CC1CCCC1 | inactive: 1.02
C[C@@H]1CN([C@H](C)CO)C(=O)c2cc(NC(=O)CCCN(C)C)ccc2O[C@@H]1CN(C)Cc1ccc(Oc2ccccc2)cc1 | inactive: 0.986
C[C@H](CO)N1C[C@H](C)[C@@H](CN(C)Cc2ccc(C(=O)Nc3ccccc3N)cc2)Oc2ccc(NC(=O)CCC(F)(F)F)cc2CC1=O | inactive: 1.01
C[C@@H]1CN([C@H](C)CO)C(=O)c2cc(C#CC3(O)CCCC3)cnc2O[C@@H]1CN(C)S(=O)(=O)c1cccc(F)c1 | inactive: 0.986
C[C@@H](NC(=O)C[C@H]1CC[C@H](NC(=O)CN2CCOCC2)[C@@H](CO)O1)c1ccccc1 | inactive: 0.976
O=C(C[C@@H]1CC[C@@H](NS(=O)(=O)c2ccccc2)[C@@H](CO)O1)NCc1ccncn1 | inactive: 1.01
NC(=S)CS(=O)(=O)c1ccccn1 | inactive: 0.934
O=C(C[C@H]1CC[C@@H]2[C@H](COC[C@@H](O)CN2S(=O)(=O)c2ccc(F)cc2)O1)NCCN1CCCCC1 | inactive: 0.995

Structure (SMILES) | relative growth
Cc1noc(C)c1S(=O)(=O)N(C)C[C@@H]1Oc2ccc(NS(C)(=O)=O)cc2CC(=O)N([C@@H](C)CO)C[C@H]1C | inactive: 1.01
C[C@H]1CN([C@@H](C)CO)C(=O)c2cc(NC(=O)Nc3ccc(C(F)(F)F)cc3)ccc2O[C@H]1CN(C)Cc1ccc(C(=O)O)cc1 | inactive: 0.954
Cc1nnc(NS(=O)(=O)c2ccc(N)cc2)s1 | inactive: 0.902
C[C@@H]1CN([C@H](C)CO)C(=O)Cc2cc(NC(=O)Nc3cccc4ccccc34)ccc2O[C@H]1CN(C)Cc1ccccc1 | inactive: 1.01
COc1ccc(S(=O)(=O)N(C)C[C@H]2OCCCC[C@H](C)Oc3ccc(NC(=O)Nc4c(C)noc4C)cc3C(=O)N([C@H](C)CO)C[C@H]2C)cc1 | inactive: 0.972
COc1ccccc1NC(=O)N(C)C[C@@H]1OCc2ccccc2-c2c(n(C)c3ccccc23)C(=O)N([C@@H](C)CO)C[C@@H]1C | inactive: 1.02
C[C@H](CO)N1C[C@H](C)[C@H](CN(C)Cc2ccc3c(c2)OCO3)Oc2c(NC(=O)c3ccncc3)cccc2C1=O | inactive: 0.959
CN(C)CCCCCCNC(=O)[C@H]1C[C@H]2C(=O)NCC(=O)N2[C@H]1c1cccc(OCCO)c1 | inactive: 1.02
C[C@@H]1CCCCO[C@H](CN(C)C)[C@H](C)CN([C@H](C)CO)C(=O)c2cc(NC(=O)Nc3cccc4ccccc34)ccc2O1 | inactive: 0.998
C[C@@H]1CCCCO[C@H](CN(C)S(=O)(=O)c2cn(C)cn2)[C@H](C)CN([C@@H](C)CO)C(=O)c2cc(NC(=O)c3ccncc3)ccc2O1 | inactive: 0.834
Cc1ccc(S(=O)(=O)N(C)C[C@H]2Oc3ccc(NS(=O)(=O)c4ccccc4)cc3C(=O)N([C@@H](C)CO)C[C@@H]2C)cc1 | inactive: 1.04
COCC#Cc1ccc2c(c1)O[C@H](CN(C)C(=O)c1ccccc1F)[C@@H](C)CN([C@H](C)CO)S2(=O)=O | inactive: 0.979
C[C@@H]1CCCCO[C@@H](CN(C)Cc2ccc3c(c2)OCO3)[C@H](C)CN([C@H](C)CO)C(=O)c2cc(NS(=O)(=O)c3ccc(F)cc3)ccc2O1 | inactive: 1
COCC(=O)N(C)C[C@H]1Oc2cc(C#CC(C)(C)O)ccc2S(=O)(=O)N([C@H](C)CO)C[C@@H]1C | inactive: 0.989
C[C@H](CO)N1C[C@H](C)[C@H](CN(C)C(=O)Nc2ccccc2)Oc2ccc(NC(=O)CCN3CCOCC3)cc2CC1=O | inactive: 1
COC(=O)N1CCC[C@H](C(=O)O)C1 | inactive: 1
C=CCNC(=O)[C@H]1[C@@H]2C(=O)O[C@@H](c3ccccc3)[C@@H](c3ccccc3)N2[C@@H](c2ccccc2OCCO)[C@]12C(=O)Nc1ccc(C#CC3=CCCCC3)cc12 | inactive: 1.03
COc1ccc(NC(=O)Nc2cccc3c2O[C@H](CN(C)C(=O)Nc2cccc4ccccc24)[C@@H](C)CN([C@H](C)CO)C3=O)cc1 | inactive: 1.01
